Data from publication PMC12136788.
The list shows a part of the results.

T1: UNK ZnF1-3 (human, UniProt Q9C0B0 31-174)
T1 sequence: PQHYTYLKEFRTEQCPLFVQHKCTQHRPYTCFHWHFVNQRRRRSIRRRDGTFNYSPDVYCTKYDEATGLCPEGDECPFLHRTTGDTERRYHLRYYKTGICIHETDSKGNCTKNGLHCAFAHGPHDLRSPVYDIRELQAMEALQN

B1: chr3:148802587:148802588:-_ENSG00000071794_ENST00000310053|hu_mus|hu_hu_hu_mus_False|1_18 (ssRNA)
RNA: GGGAGUUCUACAGUCCGACGAUCUCCAACAACUUGUCCUCUCAUAGUUCCAAAUAAAACCAAAUCUUGCUCUUCAUCACUCGUUAGGAAGUCAUCUGGAGGAAUAAUGUCUUGGAAUUCAAAACGUGGCAAGAAAGUUGGAUACAACAGAGGAUUGAGCAUCA
B2: chr10:33190432:33190433:-_ENSG00000150093_ENST00000302278|hu_mus|hu_hu_hu_mus_True|18_38 (ssRNA)
RNA: GGGAGUUCUACAGUCCGACGAUCUACAUUUUCCAAACCUGCAUGUGAAUAAAACCCUGGCCACAGAGCCCCAAAACUACCCUACUGUGACUAAGAUAAUUGCUACUUGAGCUUGGUUGUUGUGGGACCGCCUGAGUAGGAUUCCAACAGAGGAUUGAGCAUCA
B3: chr2:198351390:198351391:-_ENSG00000144381_ENST00000345042|hu_hu|hu_hu_hu_mus_False|68_78 (ssRNA)
RNA: GGGAGUUCUACAGUCCGACGAUCUCAUUCCCACCCUCCACAGAAAGGCUGCUUCUGUUCUCAUCUGGUGGUGGCAAGCGCUACAGUCCUGAUGCUCACAGAACAGUAGAGAUGCCUCAGUGAUUUAAGUUGAAAGCAGGACACCAACAGAGGAUUGAGCAUCA
B4: chr6:41757443:41757444:+_ENSG00000214736_ENST00000398881|hu_mus|hu_hu_hu_mus_False|1_58 (ssRNA)
RNA: GGGAGUUCUACAGUCCGACGAUCGAACCGUGCAGAGGCAACAUCUCAGCCGACACUGGGGGAUGGGGGGGCAGUGGGAAACUAGGCAGGCAAGGAGAGGGAGUCAACUUCAGCUGCCACUCAGGUAGGAUCUUGUGGGGCACACAACAGAGGAUUGAGCAUCA
B5: 139369262_139369382_2819_CDS_ENSG00000148396_ENST00000313050|human|control|control (ssRNA)
RNA: GGGAGUUCUACAGUCCGACGAUCCUCUGGAACUGGCUGGGAUGGUGGUUGAACCAGCAAAUUAGCAGGCUGAUUAGAAACCAUUUCGGAAGCACCAGAACCUUGUGGAAAAUUACUUUGGGCAACACUGCUAGGCAGAGACAACAACAGAGGAUUGAGCAUCA
B6: chr8:104442852:104442853:+_ENSG00000164934_ENST00000297579|hu_mus|motif|central (ssRNA)
RNA: GGGAGUUCUACAGUCCGACGAUCCCUCAUUUCCAGGAUAACCUUUUUCAAAGGAGUAGCUUGCCGCAUAUCAUACAGUACGGUAUUCCUAUCAGAAGCACAACUUCCCAAGAGAAAUGUCUCAACAGGGUUAAAUUUAACACUCAACAGAGGAUUGAGCAUCA
B7: chr1:151372964:151372965:+_ENSG00000159377_ENST00000290541|hu_mus|FALSE|FALSE (ssRNA)
RNA: GGGAGUUCUACAGUCCGACGAUCCUUGGAGCGGCGGCUGUACAUGGCUCUUGUCAACCAUGAAUGAAUAGCUCUAGGGCUAUAGCUGUGUCCAUCUCCCAACAGCUCUUCAUCAAUCACCAUCUGGCCGAGAACUUGUUUCAACAACAGAGGAUUGAGCAUCA
B8: chr10:124922180:124922181:+_ENSG00000154473_ENST00000368858|hu_mus|FALSE|FALSE (ssRNA)
RNA: GGGAGUUCUACAGUCCGACGAUCUCCGUCAUUACUGAAGGCAAGGGAAGCGAUGCUGGUGGGGUACCGAUGGAACUGGCACAGGCGCUUCUUGUUAAAUGGGUCCCAAAUAUUGACGAAUCCAUCCGAACCACCUGUGGCAAACAACAGAGGAUUGAGCAUCA
B9: chr16:45382771:45382772:-_ENSMUSG00000022661_ENSMUST00000163230|mus_mus|mus_mus_mus_hu_True|8_98 (ssRNA)
RNA: GGGAGUUCUACAGUCCGACGAUCCUGGGUCAUGUUAUGGGCCCAAUGGACAGGGAGGGCAUGCUUCUCAAAAAAUGUGAGCUAUUGUCUAAGACUAACAAUAUUUAUCUAGCUAUAAAAAUAAGUUUUAAAUGGACGUUAAGACAACAGAGGAUUGAGCAUCA
B10: 118889628_118890881_213_CDS_ENSG00000196655_ENST00000528230|human|control|control (ssRNA)
RNA: GGGAGUUCUACAGUCCGACGAUCCUGGGAGCCGAUGGCAAAGAGCCUGCCAUUCACGUCCAUGCCAUUGAUGGCCAGCACUGCAUGACCCACUCGGAUGCCGUCCCGCUGGCCGAAAGCAACCAACACACGCUCAUCGUGUAGCAACAGAGGAUUGAGCAUCA
B11: 76467099_76467472_1202_CDS_ENSMUSG00000059323_ENSMUST00000168185|mouse|control|control (ssRNA)
RNA: GGGAGUUCUACAGUCCGACGAUCGAACCAAGUCUUAGCUUCCUCCAGAGCGUUGCCCUUGCGCAGCCUCAGUUCUUCCUCAUAGUGGUGCACAGCCUUGCGGUGAUCCUUCAUGUCUCCCAGUGUGGUGGCCAGGGAUACGUGCAACAGAGGAUUGAGCAUCA
B12: 77926821_77926941_300_CDS_ENSG00000138758_ENST00000541121|human|control|control (ssRNA)
RNA: GGGAGUUCUACAGUCCGACGAUCUUUAUUUAUCUGGUCUCCAAAUCCCACGGUGUCAACAAUGGUUAACUUCAGCCGUACAUUGCUUUCCUGAAGCUCAUAACUUCUGGCUUUUAACCGAACACCUGGUUCAUUGUGAGUAGCCAACAGAGGAUUGAGCAUCA
B13: 178685600_178685720_3448_CDS_ENSMUSG00000057335_ENSMUST00000057037|mouse|control|control (ssRNA)
RNA: GGGAGUUCUACAGUCCGACGAUCAACAGAUGCUUUGUCAGCAUCAGCAAGUUCACUGUCAGAAGCUUCACCAAGCCGGGCUCUUCGCAGGAGGGAAGUCCGGGUGGGCCGUGGCCUUGGGAGAGUAGUGGAUUUGCUUGUUGACAACAGAGGAUUGAGCAUCA
B14: chr9:26842284:26842285:-_ENSG00000120159_ENST00000333916|hu_hu|motif|central (ssRNA)
RNA: GGGAGUUCUACAGUCCGACGAUCAAUUAAAUGAUGUGGCUUUGUUCAAACAUACCUAAAAUUCAAAAUCAAGUUAAAUACCGGGGCUGGCUUUUUUAUAUCACCAGCUUUCAUUAGGGCUUUAAUCGCUCUUGCCCUCAUCUCCAACAGAGGAUUGAGCAUCA
B15: chr17:57737884:57737885:+_ENSG00000141367_ENST00000269122|hu_mus|FALSE|FALSE (ssRNA)
RNA: GGGAGUUCUACAGUCCGACGAUCGUUUCCCUGGGCGAAGAGAGCAUUAAAUUUCCGGGCAAAGAGUUCUUCAGCACCAGCUAAGUUGUUCCGCACAGCCAUUCUCAGAGCCAAGUCAGGAUUUUGUAGGACAUUGGUGAUAUACAACAGAGGAUUGAGCAUCA
B16: chr1:243329018:243329019:-_ENSG00000143702_ENST00000366542|hu_hu|FALSE|FALSE (ssRNA)
RNA: GGGAGUUCUACAGUCCGACGAUCCAAUUUAGUAGGUGUCCACUGAGCCUCCUCCCUUUGUUCUUGUUGUUGAAGUUUUGCUAAUGUUUGCUUUACCAAAGAAGUUUCCUUAUCAGUUUCACUUUUCUCUUUUCCAGGAGCAGACAACAGAGGAUUGAGCAUCA
B17: chr5:38528984:38528985:-_ENSMUSG00000029126_ENSMUST00000031009|mus_mus|FALSE|FALSE (ssRNA)
RNA: GGGAGUUCUACAGUCCGACGAUCGAUUCAGAUUGAAACAUAAACAUACUUUUCUUACAAAGAUUGUGGACUUAGAUAUUCUAUUUGCAAGGUGCCACAUCAGCCCCCCCCACCAGCCGUCCUGCCCCUUCCCACAGCACAGGACAACAGAGGAUUGAGCAUCA
B18: 140291447_140297527_2219_CDS_ENSG00000164134_ENST00000296543|human|control|control (ssRNA)
RNA: GGGAGUUCUACAGUCCGACGAUCAGUUUCAACCUUGGCCAGUUUCUCUGGAAUAAGUUCUUCUUUUGGACCUCCUAUCUCCUCAUCAUCAUCAUCCUUCUUCUUUUUCUGAUUUCUCUGCUGCUUUUCUUUUUCUGCAUUUUUCAACAGAGGAUUGAGCAUCA
B19: chr7:150721943:150721944:-_ENSMUSG00000059119_ENSMUST00000072727|mus_hu|FALSE|FALSE (ssRNA)
RNA: GGGAGUUCUACAGUCCGACGAUCCACCUGAAGUUGUUUCAAUGCAUUAAUUCUUCUUUUUACUGCUUUAGGUAAAGUUUCGAUGUAGCUGGAAGGGGUGUGAGGGACAUUGUCAAGUCGCUCCUGUAAAGCUGCCAGAACUCGCAACAGAGGAUUGAGCAUCA
B20: chr8:95500983:95500984:-_ENSG00000164944_ENST00000437199|hu_hu|hu_hu_hu_mus_True|28_58 (ssRNA)
RNA: GGGAGUUCUACAGUCCGACGAUCAGAACACAUCUAUCGAGUAAAGGACCGUACAUGACGGCCUCUACCACUGCCUCCCACUAACAACUUUCCUCUCGAGCCUCCACCUGCCGCUAUUGUACUAGCCCAGGACGGUCCCAGGCCCAACAGAGGAUUGAGCAUCA
B21: 46723653_46724993_156_CDS_ENSG00000091651_ENST00000219097|human|control|control (ssRNA)
RNA: GGGAGUUCUACAGUCCGACGAUCCAGGCACAUGACUGCACUGCUGGUCUCCGUGGUGCGUGCGGAGAGGCCGACACACUUCACCCGGGACAGGCGCAAGUACUCCUCUGCUUUCCUCAGCAUGUCGGGCUCGGCGAGGCCCAGCAACAGAGGAUUGAGCAUCA
B22: chr4:122741918:122741919:-_ENSG00000145386_ENST00000274026|hu_mus|motif|central (ssRNA)
RNA: GGGAGUUCUACAGUCCGACGAUCGUCUGGCUGCCUCUUCAUGUAACCCACUUUAGGUUUACAUUUAACCUCCAUUUCCCGGAGGUACGUGUGAAUGUCUUCUUGAUAGUCAGGUACUUCAUUAACGUUCACUGGCUUGUCUUCCAACAGAGGAUUGAGCAUCA

target: T1, UNK ZnF1-3; test: nsRBNS (natural sequence RNA bind-n-seq); RBNS binding buffer (assumed for nsRBNS): 25 mM Tris pH 7.5, 150 mM KCl, 3 mM MgCl2, 0.01% Triton X-100, 500 ug/ml BSA, 20 U/ml SUPERase-In, 4 C; UNK is unkempt and MSI1 is Musashi-1; names of the RNAs are library labels; protein concentration not given here; high values mean tight binding

| Binder | binding signal [enrichment R] |
| --- | --- |
| B1 | 0.965 |
| B2 | 1.13 |
| B3 | 1.25 |
| B4 | 2.84 |
| B5 | 1.74 |
| B6 | 1.15 |
| B7 | 0.844 |
| B8 | 0.716 |
| B9 | 2.01 |
| B10 | 0.495 |
| B11 | 0.57 |
| B12 | 0.491 |
| B13 | 0.987 |
| B14 | 0.797 |
| B15 | 2.1 |
| B16 | 0.346 |
| B17 | 1.34 |
| B18 | 0.231 |
| B19 | 0.732 |
| B20 | 1.28 |
| B21 | 0.57 |
| B22 | 0.321 |
